Tests used:
[1] = test system: Human melanoma cancer cells (MALME 3M); experiment: Cytotoxicity of human TIL cells (TIL14) against melanoma cells, LDH release; assay type: cell-based; conditions: for combination index (CI): 0.05-0.8 μg/ml each
Description: FIG. 4 represents synergistic effects of anti-CEACAM1 and anti-PD-1 antibodies on the cytotoxicity of human TIL cells against human melanoma cells. TIL cells were incubated with various concentrations of a humanized mAb to human CEACAM1 (dashed black line, sphere marker), a mAb to human PD-1 (solid gray line, rectangular marker) or a combination of both antibodies (solid black line, triangle marker). IFN-γ-treated melanoma cells were added for an overnight incubation. Results represent an average of % cytotoxicity ±SE as determined by classical LDH release assay from triplicate wells per treatment. * P<0.05 paired T-test compared to the monoclonal antibody to human CEACAM1 only.
FIGS. 5A-5B Synergistic effects of anti-CEACAM1 and anti-PD-1 antibodies on Granzyme B levels and the cytotoxicity of human TIL cells against human melanoma cells when anti-PD-1 antibodies are added prior to the addition of anti-CEACAM1 antibodies. Human melanoma cells were grown in the presence of IFN-ã to induce PD-L1 expression. Human TIL cells were incubated with medium only (black), non-specific IgG antibody (white), various concentrations of a monoclonal antibody to human CEACAM1 (vertical lines), a monoclonal antibody to human PD-1 (horizontal lines) or a combination of both antibodies (dots). (FIG. 5A) Results represent an average of % cytotoxicity ±SE as determined by classical LDH release assay from triplicate wells per treatment. * P≤0.05 paired T-test compared to a-PD-1 only. (FIG. 5B) Results represent Granzyme B levels ±SE as determined by commercial Granzyme B ELISA kit from triplicate wells per treatment.
Human melanoma cancer cells (MALME 3M) were grown in the presence of IFN-ã to induce PD-L1 expression. […] The combination index (CI) was calculated to be 0.15. In the same assay, the level of the cytotoxic protein granzyme B that is secreted upon cytotoxic cell activation was evaluated by commercial granzyme B ELISA Kit. […]

[2] = molecular target: T1, CEACAM1 (Homo sapiens, UniProt P13688); experiment: Binding of CM-24 to CEACAM1 (pre-clinical summary)
T1 sequence (P13688 35-526): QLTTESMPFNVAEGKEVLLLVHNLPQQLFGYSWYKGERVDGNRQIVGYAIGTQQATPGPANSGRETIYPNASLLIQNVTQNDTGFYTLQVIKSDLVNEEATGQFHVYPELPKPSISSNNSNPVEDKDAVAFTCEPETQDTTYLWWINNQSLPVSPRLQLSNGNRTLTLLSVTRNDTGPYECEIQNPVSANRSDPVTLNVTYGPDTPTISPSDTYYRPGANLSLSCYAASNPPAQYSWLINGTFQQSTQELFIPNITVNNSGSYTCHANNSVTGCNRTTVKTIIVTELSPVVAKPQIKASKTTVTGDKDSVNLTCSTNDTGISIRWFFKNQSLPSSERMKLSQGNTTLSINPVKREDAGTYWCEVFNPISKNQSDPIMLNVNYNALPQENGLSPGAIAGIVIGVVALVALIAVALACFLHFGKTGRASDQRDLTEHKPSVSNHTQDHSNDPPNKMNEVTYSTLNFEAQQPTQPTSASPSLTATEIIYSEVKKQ

[3] = test system: complement component—C1q and the ADCC mediator-Fcγ-RIIIa; experiment: Binding to Fc effector mediators; conditions: IgG4
Description: CM-24 enhances the cytotoxic activity of effector cells in the presence of CEACAM1 positive tumor cells and in the context of a specific human leukocyte antigen (HLA)-restricted T cell reaction.

B1: CM-24: back-mutated humanized IgG4 anti human CEACAM1 monoclonal antibody; light chain SEQ ID NO: 52, heavy chain SEQ ID NO: 53 (antibody)
heavy: QVQLVQSGAEVKKPGASVKVSCKASGYAFTNNLIEWVRQAPGQGLEWIGVINPGSGDTNYNEKFKGRVTMTADKSISTAYMELSRLRSDDTAVYYCARGDYYGGFAVDYWGQGTTVTVSSASTKGPSVFPLAPCSRSTSESTAALGCLVKDYFPEPVTVSWNSGALTSGVHTFPAVLQSSGLYSLSSVVTVPSSSLGTKTYTCNVDHKPSNTKVDKRV[letters of human IgG4 Fc with S228P (EU numbers) left out]
light: DIQMTQSPSSLSASVGDRVTITCRTSQDIGNYLNWYQQKPGKAVKLLIYYTSRLHSGVPSRFSGSGSGTDYTLTISSLQPEDIATYFCQQGKSLPRTFGGGTKVEIKRTVAAPSVFIFPPSDEQLKSGTASVVCLLNNFYPREAKVQWKVDNALQSGNSQESVTEQDSKDSTYSLSSTLTLSKADYEKHKVYACEVTHQGLSSPVTKSFNRGEC
toxicity of human TIL cells against human cancer cells ([1]; CM-24 with mAb to human PD-1 (clone E12.2H7), 0.005-0.25 μg/ml of each, vs each monotherapy): significantly increased the toxicity
combination index (CI) ([1]; CM-24 with mAb to human PD-1 (clone E12.2H7), anti-PD-1 added first): 0.15
combination index (CI) ([1]; CM-24 with mAb to human PD-L1 (clone 29E.2A3), anti-PD-L1 added first): 0.67
binding to human CEACAM1 [2]: high affinity and selective binding
binding to C1q and Fcγ-RIIIa [3]: unable to bind
